The other results are listed elsewhere or left out. Most values come without repeats; read them as rough.
Legend:
Experiment in all cases: cell count relative to DMSO control; melanoma cells; higher = more viable cells
Details in all cases: library dose: low library concentration; 72 h
WM1745 = test system: WM1745
WM3526 = test system: WM3526
WM3619 = test system: WM3619
WM451Lu = test system: WM451Lu
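Further: cell number obtained by counting DAPI-stained nuclei in high-throughput microscope images with image analysis software, screen run in 1,536-well plates.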

Compound | cell count (WM1745) | cell count (WM3526) | cell count (WM3619) | cell count (WM451Lu)
O=C(O)C(=O)Nc1sc2c(c1C(=O)O)CCNC2 + Oc1nc(-c2ccc(C(F)(F)F)cc2)nc2c1CSCC2 [XAV939] (first compound 1.66667 µM, partner dose 2 µM) | 68.2% | 126% | 102% | 92%
Oc1nc(-c2ccc(C(F)(F)F)cc2)nc2c1CSCC2 + Cn1cc(/C=C2\C(=O)Nc3cccnc32)c2ccccc21 [GW441756] (first compound 2 µM, partner dose 0.4 µM) | 83.2% | 104% | 83.1% | 114%
Cc1cc([N+](=O)[O-])ccc1NS(=O)(=O)c1cc(Cl)ccc1Cl + COc1cc(N2CCC(N3CCN(C)CC3)CC2)ccc1Nc1ncc(Cl)c(Nc2ccccc2S(=O)(=O)C(C)C)n1 [NVP-TAE684] (first compound 1 µM, partner dose 0.08 µM) | 94.1% | 115% | 112% | 94.1%
COc1ccc(COc2ccc(Cc3cnc(N)nc3N)cc2OC)cc1 + O=C1NC(=O)/C(=C/c2ccc(-c3ccc(F)cc3O)o2)S1 [AS252424] (first compound 1 µM, partner dose 1 µM) | 98.2% | 121% | 97.5% | 93.2%
COC(=O)c1sccc1S(=O)(=O)Nc1ccc(Nc2ccccc2)cc1OC + O=C1NC(=O)/C(=C/c2ccc(-c3ccc(F)cc3O)o2)S1 [AS252424] (first compound 1 µM, partner dose 1 µM) | 78.1% | 85.6% | 86.3% | 103%
COC(=O)c1sccc1S(=O)(=O)Nc1ccc(Nc2ccccc2)cc1OC + CCCCCCCCCCCC1=C(O)C(=O)C=C(O)C1=O [Embelin] (first compound 1 µM, partner dose 1.2 µM) | 97.9% | 120% | 117% | 117%
O=S(=O)(c1ccccc1)N(CC(F)(F)F)c1ccc(C(O)(C(F)(F)F)C(F)(F)F)cc1 + CC(C)CCN1c2nc(Nc3cc(F)c(O)c(F)c3)ncc2N(C)C(=O)C1C [BID1870] (first compound 1.4 µM, partner dose 0.2 µM) | 93.4% | 81.1% | 87.3% | 100%
COc1cc2ncnc(Nc3ccc(Oc4ccccc4)cc3)c2cc1OC + O=C1NC(=O)/C(=C/c2ccc(-c3ccc(F)cc3O)o2)S1 [AS252424] (first compound 2 µM, partner dose 1 µM) | 78.1% | 95.5% | 97.9% | 121%
O=c1cc(-c2cccc3c2Sc2ccccc2S3)oc(N2CCOCC2)c1 + CC(C)CCN1c2nc(Nc3cc(F)c(O)c(F)c3)ncc2N(C)C(=O)C1C [BID1870] (first compound 1 µM, partner dose 0.2 µM) | 89.1% | 80.8% | 84.7% | 88.2%
CCN(CC)CCCCNc1ncc2cc(-c3cc(OC)cc(OC)c3)c(NC(=O)NC(C)(C)C)nc2n1 + O=S(=O)(c1ccccc1)N(CC(F)(F)F)c1ccc(C(O)(C(F)(F)F)C(F)(F)F)cc1 [T0901317] (first compound 0.1 µM, partner dose 1.4 µM) | 85.7% | 105% | 130% | 92%
Cn1cc(/C=C2\C(=O)Nc3cccnc32)c2ccccc21 + CCCCCCCCCCCC1=C(O)C(=O)C=C(O)C1=O [Embelin] (first compound 0.4 µM, partner dose 1.2 µM) | 91.8% | 100% | 94.6% | 107%
COC(=O)c1sccc1S(=O)(=O)Nc1ccc(Nc2ccccc2)cc1OC + O=C(O)C(=O)Nc1sc2c(c1C(=O)O)CCNC2 [TCS401] (first compound 1 µM, partner dose 1.66667 µM) | 99.6% | 112% | 94.3% | 101%
N#Cc1c(O)c2c(-c3ccc(-c4ccccc4O)cc3)csc2[nH]c1=O + COc1cc2ncnc(Nc3ccc(Oc4ccccc4)cc3)c2cc1OC [SrcI1] (first compound 2 µM, partner dose 2 µM) | 86.1% | 103% | 122% | 118%
Cc1cc([N+](=O)[O-])ccc1NS(=O)(=O)c1cc(Cl)ccc1Cl + CCCCCCCCCCCC1=C(O)C(=O)C=C(O)C1=O [Embelin] (first compound 1 µM, partner dose 1.2 µM) | 98.2% | 97.2% | 105% | 107%
COC(=O)c1sccc1S(=O)(=O)Nc1ccc(Nc2ccccc2)cc1OC + COc1cc2ncnc(Nc3ccc(Oc4ccccc4)cc3)c2cc1OC [SrcI1] (first compound 1 µM, partner dose 2 µM) | 84.9% | 109% | 116% | 95%
O=C(O)C(=O)Nc1sc2c(c1C(=O)O)CCNC2 + O=C1NC(=O)/C(=C/c2ccc(-c3ccc(F)cc3O)o2)S1 [AS252424] (first compound 1.66667 µM, partner dose 1 µM) | 82.7% | 109% | 93.2% | 103%
COc1ccc2c(c1)CCC1C2CCC2(C)C(NCCCCCCN3C(=O)C=CC3=O)CCC12 (stereo not drawn) + COc1cc2ncnc(Nc3ccc(Oc4ccccc4)cc3)c2cc1OC [SrcI1] (first compound 0.4 µM, partner dose 2 µM) | 86.5% | 88% | 77.5% | 97%
COc1cc2ncnc(Nc3ccc(Oc4ccccc4)cc3)c2cc1OC + O=c1cc(-c2cccc3c2Sc2ccccc2S3)oc(N2CCOCC2)c1 [KU55933] (first compound 2 µM, partner dose 1 µM) | 79.1% | 96% | 107% | 103%
O=C1NC(=O)/C(=C/c2ccc(-c3ccc(F)cc3O)o2)S1 + CC(C)CCN1c2nc(Nc3cc(F)c(O)c(F)c3)ncc2N(C)C(=O)C1C [BID1870] (first compound 1 µM, partner dose 0.2 µM) | 94.9% | 74.7% | 92.6% | 116%
N#Cc1c(O)c2c(-c3ccc(-c4ccccc4O)cc3)csc2[nH]c1=O + O=C(O)C(=O)Nc1sc2c(c1C(=O)O)CCNC2 [TCS401] (first compound 2 µM, partner dose 1.66667 µM) | 103% | 112% | 114% | 80.5%
COc1ccc(-c2ccc3c(N4CCOCC4)nc(N4C[C@@H](C)O[C@@H](C)C4)nc3n2)cc1CO + Cn1cc(/C=C2\C(=O)Nc3cccnc32)c2ccccc21 [GW441756] (first compound 0.02 µM, partner dose 0.4 µM) | 82.1% | 95.1% | 86.9% | 87.1%
COc1ccc(COc2ccc(Cc3cnc(N)nc3N)cc2OC)cc1 + Oc1cc(-c2nc(-c3ccccc3)[nH]c2-c2ccncc2)ccc1Cl [L779450] (first compound 1 µM, partner dose 0.2 µM) | 86.8% | 76.8% | 92.3% | 104%
